# Whole data set: some 81,000 sequences, median “one-hybrid fitness for binding NBS DNA” near -0.1, cut for the highest 2% near 0.36. The list shows a part of the results.
# B1: Caulobacter ParB omega fusion; a variant is named by its letters at X, in order, B8GW30 (parent)
# chain: MESVVVGEPGMSEGRRGLGRGLSALLGEVDAAPAQAPGEQLGGSREAPIEILQRNPDQPRRTFREEDLEDLSNSIREKGVLQPILVRPSPDTAGEYQIVAGERAWRAAQRAGLKTVPIMVRELDDLAVLEIGIIENVQRADLNVLEEALSYKVLMEKFERTQENIAQTIGKSXSHVANXMRLLXLPDEVQSYLVSGELTAXHARAIAAAADPVALAKQIIEGGLSVRETEALARKAPNLSAGKSKGGRPPRVKDTDTQALESDLSSVLGLDVSIDHRGSTGTLTITYATLEQLDDLCNRLTRGI
# Variants of: B1
# Assay: one-hybrid fitness for binding NBS DNA (the Noc-binding site; scaled: cognate 1, non-cognate 0); higher = stronger binding
# Conditions: with NBS DNA site
# Summary of the method: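 Bacterial one-hybrid selection in E. coli USO rpoZ- hisB- pyrF- with a HIS3 reporter carrying the site 19 bp from the promoter, screening Caulobacter ParB libraries with four specificity codons randomised (NNS). Cells grew 48 hours at 37°C on M9-minus-histidine plus 0.1 mM IPTG and 5 mM 3-AT. Plasmids before and after selection were Illumina-sequenced, three replicate libraries pooled, and variants under 10 reads dropped. Fitness is the log change in variant-to-wild-type read ratio, rescaled to cognate 1, non-cognate 0.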
row,Variant,one-hybrid fitness for binding NBS DNA
1,HCCS,≤ 0.2
2,HIPW,≤ 0.2
3,KKTD,≤ 0.2
4,SAPM,≤ 0.2
5,SVTQ,≤ 0.2
6,WGPG,≤ 0.2
7,TTTL,≤ 0.2
8,WTAY,≤ 0.2
9,QPTI,≤ 0.2
10,YNVP,≤ 0.2
11,PGCP,≤ 0.2
12,KCER,≤ 0.2
13,RSGW,≤ 0.2
14,MALK,≤ 0.2
15,SSNS,≤ 0.2
16,SAFC,≤ 0.2
17,VWAI,≤ 0.2
18,HLFT,≤ 0.2
19,YHQE,≤ 0.2
20,TASP,≤ 0.2
21,PVFC,≤ 0.2
22,PQLL,≤ 0.2
23,MSDF,≤ 0.2
24,QHMW,≤ 0.2
25,LSWY,≤ 0.2
26,NVAT,≤ 0.2

row,Variant,one-hybrid fitness for binding NBS DNA
1,MCRV,≤ 0.2
2,RNEQ,≤ 0.2
3,SMTP,≤ 0.2
4,LTMC,≤ 0.2
5,PCPF,≤ 0.2
6,VSAT,≤ 0.2
7,MHDC,≤ 0.2
8,RTVF,≤ 0.2
9,DPPA,≤ 0.2
10,RALG,≤ 0.2
11,RPQI,≤ 0.2
12,NQPA,≤ 0.2
13,DPDC,≤ 0.2
14,PRLQ,≤ 0.2
15,NQNY,≤ 0.2
16,AYIY,≤ 0.2
17,HSTF,≤ 0.2
18,SLRK,≤ 0.2
19,DWFI,≤ 0.2
20,VMSD,≤ 0.2
21,WSDT,≤ 0.2
22,VFTD,≤ 0.2
23,YITR,≤ 0.2
24,TNRL,≤ 0.2
25,KPST,≤ 0.2
26,RVPT,≤ 0.2

row,Variant,one-hybrid fitness for binding NBS DNA
1,TAED,≤ 0.2
2,VAKA,≤ 0.2
3,EVSW,≤ 0.2
4,PFST,≤ 0.2
5,AACV,≤ 0.2
6,MCHG,≤ 0.2
7,DVFL,≤ 0.2
8,IAGE,≤ 0.2
9,SITF,≤ 0.2
10,SHLC,≤ 0.2
11,IASG,≤ 0.2
12,ARCY,≤ 0.2
13,KFRV,≤ 0.2
14,THVW,≤ 0.2
15,NPAW,≤ 0.2
16,GQET,≤ 0.2
17,MTNT,≤ 0.2
18,CFNA,≤ 0.2
19,RLEA,≤ 0.2
20,PGAY,≤ 0.2
21,YSVT,≤ 0.2
22,AFPA,≤ 0.2
23,HQAC,≤ 0.2
24,NPKH,≤ 0.2
25,MPHR,≤ 0.2
26,SMSC,≤ 0.2

row,Variant,one-hybrid fitness for binding NBS DNA
1,QKGP,≤ 0.2
2,WMHG,≤ 0.2
3,LSLG,≤ 0.2
4,TKPI,≤ 0.2
5,HIRH,≤ 0.2
6,PLST,≤ 0.2
7,RIQI,≤ 0.2
8,TSPL,≤ 0.2
9,ITGL,≤ 0.2
10,CNHS,≤ 0.2
11,KPEL,≤ 0.2
12,LSVE,≤ 0.2
13,PAHM,≤ 0.2
14,GFAR,≤ 0.2
15,FSGS,≤ 0.2
16,NLRD,≤ 0.2
17,CKNT,≤ 0.2
18,LRLQ,≤ 0.2
19,SYVF,≤ 0.2
20,RWIT,≤ 0.2
21,LPGS,≤ 0.2
22,YRYC,≤ 0.2
23,FSNT,≤ 0.2
24,PFRL,≤ 0.2
25,RWKV,≤ 0.2
26,TSAH,≤ 0.2

row,Variant,one-hybrid fitness for binding NBS DNA
1,NDFG,≤ 0.2
2,QCKR,1.08
3,WPNS,≤ 0.2
4,SMLV,≤ 0.2
5,LPPQ,≤ 0.2
6,MEDL,≤ 0.2
7,HKCY,≤ 0.2
8,SNAP,≤ 0.2
9,IPFS,≤ 0.2
10,MRGS,≤ 0.2
11,AKSH,≤ 0.2
12,FPSM,≤ 0.2
13,DMAY,≤ 0.2
14,QHDN,≤ 0.2
15,WEMC,≤ 0.2
16,KMTA,≤ 0.2
17,YIMT,≤ 0.2
18,MLRA,≤ 0.2
19,CLIC,≤ 0.2
20,FCAR,≤ 0.2
21,SKWT,≤ 0.2
22,KVVI,≤ 0.2
23,GKGT,≤ 0.2
24,TGKC,≤ 0.2
25,DDSA,≤ 0.2
26,PSWC,≤ 0.2

row,Variant,one-hybrid fitness for binding NBS DNA
1,ELSY,≤ 0.2
2,QARD,0.23
3,REGL,≤ 0.2
4,KHGR,≤ 0.2
5,TDQN,≤ 0.2
6,WQLC,≤ 0.2
7,VSAN,≤ 0.2
8,CSLL,≤ 0.2
9,DDPR,≤ 0.2
10,LSVV,≤ 0.2
11,YLHD,≤ 0.2
12,EKFT,≤ 0.2
13,SIFD,≤ 0.2
14,PCRS,≤ 0.2
15,HPMS,≤ 0.2
16,QASQ,≤ 0.2
17,VTIM,≤ 0.2
18,FRDG,≤ 0.2
19,SMLK,≤ 0.2
20,HTVC,≤ 0.2
21,ASGE,≤ 0.2
22,PMER,≤ 0.2
23,CKGS,≤ 0.2
